In the supplement of paper PMC8728848:
This is one part of the list.

Experiments:
Assay in all cases: glycan array binding signal (z-score within array); higher = stronger binding
Details in all cases: glycan notation: IUPAC condensed, linker removed
[1] = biological target: Gal(b1-4)GlcNAc(b1-2)[Gal(b1-4)GlcNAc(b1-4)]Man(a1-3)[Gal(b1-4)GlcNAc(b1-2)[Gal(b1-4)GlcNAc(b1-6)]Man(a1-6)]Man(b1-4)GlcNAc(b1-4)GlcNAc
Procedure, shortened: (§1)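 Columns mapping to the same glycan were averaged after glycan names were converted to IUPAC-condensed notation. The data come from 3228 arrays in the Consortium for Functional Glycomics database, limited to those with an available protein sequence. Binding is reported as a within-array Z-score averaged across arrays of one protein sequence and across linkers.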

[2] = biological target: Gal(b1-4)GlcNAc(b1-2)[Gal(b1-4)GlcNAc(b1-4)]Man(a1-3)[GlcNAc(b1-4)][Gal(b1-4)GlcNAc(b1-2)Man(a1-6)]Man(b1-4)GlcNAc(b1-4)GlcNAc
Procedure, shortened: as §1

[3] = biological target: Gal(b1-4)GlcNAc(b1-2)[Gal(b1-4)GlcNAc(b1-4)]Man(a1-3)[GlcNAc(b1-4)][Gal(b1-4)GlcNAc(b1-2)[Gal(b1-4)GlcNAc(b1-6)]Man(a1-6)]Man(b1-4)GlcNAc(b1-4)GlcNAc
Procedure, shortened: as §1

[4] = biological target: Gal(b1-4)GlcNAc(b1-2)[Gal(b1-4)GlcNAc(b1-6)]Man(a1-6)[Gal(b1-4)GlcNAc(b1-2)Man(a1-3)]Man(b1-4)GlcNAc(b1-4)GlcNAc
Procedure, shortened: as §1

[5] = biological target: Gal(b1-4)GlcNAc(b1-2)[Gal(b1-4)GlcNAc(b1-6)]Man(a1-6)[Gal(b1-4)GlcNAc(b1-2)Man(a1-3)]Man(b1-4)GlcNAc(b1-4)[Fuc(a1-6)]GlcNAc
Procedure, shortened: as §1

[6] = biological target: Gal(b1-4)GlcNAc(b1-2)[Gal(b1-4)GlcNAc(b1-6)]Man(a1-6)[GlcNAc(b1-4)][Gal(b1-4)GlcNAc(b1-2)Man(a1-3)]Man(b1-4)GlcNAc(b1-4)GlcNAc
Procedure, shortened: as §1

[7] = biological target: Gal(b1-4)GlcNAc(b1-2)[Gal(b1-4)GlcNAc(b1-6)]Man(a1-6)[GlcNAc(b1-4)][Gal(b1-4)GlcNAc(b1-2)[Gal(b1-4)GlcNAc(b1-4)]Man(a1-3)]Man(b1-4)GlcNAc(b1-4)[Fuc(a1-6)]GlcNAc
Procedure, shortened: as §1

[8] = biological target: Gal(b1-4)GlcNAc(b1-3)Gal(b1-3)GalNAc
Procedure, shortened: as §1

[9] = biological target: Gal(b1-4)GlcNAc(b1-3)Gal(b1-3)GlcNAc
Procedure, shortened: as §1

[10] = biological target: Gal(b1-4)GlcNAc(b1-3)Gal(b1-4)Glc
Procedure, shortened: as §1

[11] = biological target: Gal(b1-4)GlcNAc(b1-3)Gal(b1-4)GlcNAc
Procedure, shortened: as §1

[12] = biological target: Gal(b1-4)GlcNAc(b1-3)Gal(b1-4)GlcNAc(b1-2)Man(a1-3)[Gal(b1-4)GlcNAc(b1-3)Gal(b1-4)GlcNAc(b1-2)Man(a1-6)]Man(b1-4)GlcNAc(b1-4)GlcNAc
Procedure, shortened: as §1

[13] = biological target: Gal(b1-4)GlcNAc(b1-3)Gal(b1-4)GlcNAc(b1-2)Man(a1-3)[Gal(b1-4)GlcNAc(b1-3)Gal(b1-4)GlcNAc(b1-2)Man(a1-6)]Man(b1-4)GlcNAc(b1-4)[Fuc(a1-6)]GlcNAc
Procedure, shortened: as §1

[14] = biological target: Gal(b1-4)GlcNAc(b1-3)Gal(b1-4)GlcNAc(b1-2)[Gal(b1-4)GlcNAc(b1-3)Gal(b1-4)GlcNAc(b1-6)]Man(a1-6)[Gal(b1-4)GlcNAc(b1-3)Gal(b1-4)GlcNAc(b1-2)Man(a1-3)]Man(b1-4)GlcNAc(b1-4)GlcNAc
Procedure, shortened: as §1

[15] = biological target: Gal(b1-4)GlcNAc(b1-3)Gal(b1-4)GlcNAc(b1-2)[Gal(b1-4)GlcNAc(b1-3)Gal(b1-4)GlcNAc(b1-6)]Man(a1-6)[Gal(b1-4)GlcNAc(b1-3)Gal(b1-4)GlcNAc(b1-2)Man(a1-3)]Man(b1-4)GlcNAc(b1-4)[Fuc(a1-6)]GlcNAc
Procedure, shortened: as §1

[16] = biological target: Gal(b1-4)GlcNAc(b1-3)Gal(b1-4)GlcNAc(b1-3)Gal(b1-4)GlcNAc
Procedure, shortened: as §1

[17] = biological target: Gal(b1-4)GlcNAc(b1-3)Gal(b1-4)GlcNAc(b1-3)Gal(b1-4)GlcNAc(b1-2)Man(a1-3)[Gal(b1-4)GlcNAc(b1-3)Gal(b1-4)GlcNAc(b1-3)Gal(b1-4)GlcNAc(b1-2)Man(a1-6)]Man(b1-4)GlcNAc(b1-4)GlcNAc
Procedure, shortened: as §1

[18] = biological target: Gal(b1-4)GlcNAc(b1-3)Gal(b1-4)GlcNAc(b1-3)Gal(b1-4)GlcNAc(b1-2)Man(a1-3)[Gal(b1-4)GlcNAc(b1-3)Gal(b1-4)GlcNAc(b1-3)Gal(b1-4)GlcNAc(b1-2)Man(a1-6)]Man(b1-4)GlcNAc(b1-4)[Fuc(a1-6)]GlcNAc
Procedure, shortened: as §1

B1: PpFlo1 (Pichia pastoris) (protein)
chain: MGSSHHHHHHSSGLVPRGSHMQESGDGDISDSAYACDIDATRYDGFNATIYEFQPGDGRLTRDPVFMSTGYLNRTQLHSITGVTDPGFSIYTPGVPTTTLYGIPNVNWENLLLELKGYFRAEVSGDYGLSLRNIDDSAILFFGKETAFQCCNENSISNEASTDYSLFTIFRQEGDETTNLDSFTYTQYLEAGKYYPVRTFFVNIERHAVFNFTMTLPDGTELTDFHNYIYQFGALDEEQCQA
With B1 as the binder, how does the “glycan array binding signal (z-score)” value [1] read?
The value was -0.501.

What about the “glycan array binding signal (z-score)” value [2] of the same binder?
The value was -0.266.

And the “glycan array binding signal (z-score)” value [3]?
Its value is -0.171.

What about the “glycan array binding signal (z-score)” value [4] of the same binder?
The value was -0.079.

What about the “glycan array binding signal (z-score)” value [5] of the same binder?
Its value is -0.022.

What about the “glycan array binding signal (z-score)” value [6] of the same binder?
Its value is -0.527.

What about the “glycan array binding signal (z-score)” value [7] of the same binder?
Its value is -0.081.

What about the “glycan array binding signal (z-score)” value [8] of the same binder?
Its value is -0.365.

What about the “glycan array binding signal (z-score)” value [9] of the same binder?
The value was 0.378.

What about the “glycan array binding signal (z-score)” value [10] of the same binder?
Its value is -0.3.

And the “glycan array binding signal (z-score)” value [11]?
The value was -0.278.

And the “glycan array binding signal (z-score)” value [12]?
Its value is 0.578.

What about the “glycan array binding signal (z-score)” value [13] of the same binder?
Its value is 0.168.

What about the “glycan array binding signal (z-score)” value [14] of the same binder?
The value was 0.257.

And the “glycan array binding signal (z-score)” value [15]?
Its value is 0.048.

And the “glycan array binding signal (z-score)” value [16]?
Its value is 0.361.

And the “glycan array binding signal (z-score)” value [17]?
The value was 0.867.

What about the “glycan array binding signal (z-score)” value [18] of the same binder?
The value was -0.205.
